Results on 42 compounds are retold here after ChEMBL document CHEMBL4888484, “Replenishing the malaria drug discovery pipeline: Screening and hit evaluation of the MMV Hit Generation Library 1 (HGL1) against asexual blood stage Plasmodium falciparum ,using a nano luciferase reporter read-out” (2022).

Molecules are shown by their SMILES. Among all 150,000 compounds or so, about 540 (0.36%) showed an effect of 50% or more. The list shows a part of the results.

One may read the % Inhibition as the drop in the measured response relative to a control, in per cent.

The experiment has as its system Plasmodium falciparum. Description: Primary screen in NF54 nanoGlo assay, in single point, at 2uM, 72h; a lower Z score goes with more inhibition. The note with it: timepoint 72 hour. Type of experiment: functional, Erythrocyte.
For the compound `O=C(c1ccncc1)N1C[C@H](O)[C@@H](N2CCN(c3ccccn3)CC2)C1`, the “% Inhibition” value came out at 1% and the Z score is given as -0.19.
Take `NC[C@H]1Cn2cccc2CN1Cc1ccccc1`: the “% Inhibition” value came to 0% and the Z score is 0.06.
For `Cc1ccc(OC2CCN(C(=O)Nc3ccccc3C)CC2)nn1`, the “% Inhibition” value was -11% and the Z score is listed as 2.09.
Take `Cc1sc(C)c(S(=O)(=O)NC2CCC(C)CC2)c1-c1ccno1` (centres undefined): the “% Inhibition” value is given as -16% and the Z score is listed as 2.81.
Turning to `CC(C)(C)n1cc(CNCC(F)(F)CO)nn1`, the “% Inhibition” value was -17% and the Z score came to 2.38.
Take `O=C(NCc1cccc(CN2CCCC2=O)c1)[C@@H]1CCc2cccnc21`: the “% Inhibition” value is given as -8% and the Z score is on record as 1.01.
Take `O=C(NCC#CCN1CCc2ccccc2C1)c1cccc(F)c1`: the “% Inhibition” value was 0% and the Z score is reported as 0.05.
As to `CCCNC(=O)COc1ncnc2onc(-c3ccccc3)c12`, the “% Inhibition” value is recorded as -7% and the Z score came to 1.08.
As for `COCCOCc1nc(Cc2cccs2)nn1C1Cc2ccccc2C1`, the “% Inhibition” value turned out to be 6% and the Z score is reported as -1.23.
For the compound `CC(O)CNS(=O)(=O)N1CC(C)CC(C)C1` (centres undefined), the “% Inhibition” value amounted to 27% and the Z score was -3.03.
For `CCc1nc(N)nc(NCCc2noc(C3CCC3)n2)c1C` the same measures were -9% and 1.33.
The matching figures for `O=S(=O)(c1ccc(Cl)s1)N1CCC[C@H]1c1nc2ccccc2s1`: -3% and 0.51.
For `CCOc1ccccc1NC(=O)CN1CCN(Cc2ccccc2)S1(=O)=O`, the “% Inhibition” value is on record as -21% and the Z score is recorded as 1.81.
Consider `Nc1c(Br)cc(/C=C2\C=Cc3ccccc32)cc1Br`, for which the “% Inhibition” value is -4% and the Z score is recorded as 0.43.
In the case of `CN(Cc1cnccn1)S(=O)(=O)c1cc(Cl)c(N)c(Cl)c1`, the “% Inhibition” value is listed as -23% and the Z score was 4.46.
On to `CCc1ccc(S(=O)(=O)Nc2ccc(N3CCCCC3=O)c(OC)c2)s1`, for which the “% Inhibition” value is listed as -16% and the Z score turned out to be 2.41.
`O=C(C1CCC1)N1CC(c2nc(-c3ccncc3)no2)C1`: the “% Inhibition” value is reported as -9% and the Z score is 1.67.
With `COc1ccc(-c2ccno2)cc1S(=O)(=O)N[C@@H](C)c1nncn1C`, the “% Inhibition” value is given as -7% and the Z score turned out to be 1.04.
In the case of `CCOC(=O)N1CCC(N2C(=O)c3ccc(C(=O)NCCCc4ccccc4)cc3C2=O)CC1`, the “% Inhibition” value is recorded as -6% and the Z score came to 0.97.
The matching figures for `COCc1ccnc(NC(=O)N[C@@H](CO)C(C)(C)C)n1`: -4% and 0.47.
Take `CC(=O)Nc1nc2ccc(NC(=O)Nc3cccc(Cl)c3)cc2s1`: the “% Inhibition” value was determined as 12% and the Z score is -1.96.
As to `Cn1cnc(C(=O)N2CCC[C@H](CC(F)(F)F)C2)c1`, the “% Inhibition” value is given as -15% and the Z score was determined as 2.5.
In the case of `O=c1cccc2n1CCCN2Cc1ccccc1Cl`, the “% Inhibition” value is listed as -3% and the Z score came to 0.4.
For `N#Cc1ccc2c(c1)N(C(=O)C1CCCC(F)C1)CC(=O)N2` (centres undefined) the same measures were 9% and -1.4.
For the compound `CNC(=O)c1sc(Nc2cccnc2)nc1C`, the “% Inhibition” value was -15% and the Z score was found to be 2.15.
The matching figures for `O=C(NCc1nccnc1-c1ccco1)Nc1nc(C2CC2)cs1`: 6% and -0.85.
The matching figures for `CCN1CCCn2cc(S(=O)(=O)NCc3cccc(F)c3)cc2C1=O`: -22% and 2.56.
Regarding `CC(C)[C@H](NC(=O)c1ccccc1Br)C(=O)NCc1nnc2ccccn12`, the “% Inhibition” value is on record as -10% and the Z score is recorded as 1.21.
For the compound `O=C1CN(c2ncnc3c2CCCC3)CCN1`, the “% Inhibition” value is -7% and the Z score is on record as 0.94.
Regarding `O=C(Cn1c(=O)ccc2cc(S(=O)(=O)N3CCCC3)ccc21)NCc1ccc2c(c1)OCO2`, the “% Inhibition” value is on record as -8% and the Z score stood at 1.02.
For `O=C(Nc1ccc2c(c1)OCO2)N1CC(O)CC1CO` (centres undefined) the same measures were -6% and 0.89.
Consider `CN1CC(C(=O)N2CCCC(Cc3nc(-c4cnccn4)no3)C2)CC1=O` (centres undefined), for which the “% Inhibition” value is 13% and the Z score is given as -1.77.
The matching figures for `COc1cccc(C(=O)N(CCCN2CCN(C)CC2)C2CCOCC2)c1OC`: -5% and 0.84.
The matching figures for `O=C(Cc1cccs1)NCc1ccc(-c2nc(C3CC3)no2)s1`: 5% and -0.88.
The matching figures for `Cc1cn(-c2c(F)cccc2F)nc1C(=O)Nc1ccc(N(C)C)cn1`: -6% and 0.7.
Turning to `CCn1c(CCc2cccc(NC(=O)Nc3cccc(F)c3)c2)nc2ccccc21`, the “% Inhibition” value was 0% and the Z score was -0.01.
Turning to `CCCS(=O)(=O)N1CCC2(CC1)C[C@@H](N1CCN(c3ccccc3)CC1)CCO2`, the “% Inhibition” value was -14% and the Z score was found to be 1.55.
`CCc1cnc(CCN2C(=O)N[C@@H](C(C)(C)C)C2=O)s1`: the “% Inhibition” value was determined as 1% and the Z score was -0.07.
As for `CCCCN(CCO)C(=O)Nc1nn(CC(F)(F)F)cc1Cl`, the “% Inhibition” value is given as -10% and the Z score is on record as 1.03.
As for `Cc1c(NC(=O)CNC(=O)Cc2ccccc2)c(=O)n(-c2ccccc2)n1C`, the “% Inhibition” value is listed as -16% and the Z score came to 2.65.
Turning to `Cc1ccc(C(=O)Nc2nccnc2C(=O)N2CCN(c3ccccc3)CC2)cc1`, the “% Inhibition” value is reported as -9% and the Z score came out at 1.4.
Regarding `CCN(C)c1nc(N2CCN(c3ccc(C)cc3)CC2)nc2c1CN(C(=O)c1ccccc1C)CC2`, the “% Inhibition” value is -11% and the Z score is reported as 1.11.
